From PubChem BioAssay AID434955 (Southern Research Specialized Biocontainment Screening …, 2010) come the findings set out here.

Some of the results follow. These are further read-outs of the screen, such as a control signal, another cell line or another target. No call is given for them. Compounds called inactive in the main read-out are mostly missing here.

This assay can be described thus: beta-lactam sensitization of Mtb H37Rv, H37Rv (AID 434955).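 Also: growth measured after seven days incubation then overnight dye step; 0% = bacteria only wells and 100% = bacteria with antibiotic.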 To be noted: M. tuberculosis H37Rv growth with meropenem, percent inhibition; measured here: primary screen without meropenem; at 25 µM.
For `O=CN/N=C/c1c(O)ccc2ccccc12`, the inhibition was -0.76%.

On to `COCCNC(=O)COc1ccc(Nc2ccccc2)cc1`, for which the inhibition was -12.2%.

With `O=C(N1CCOCC1)N1CCN(S(=O)(=O)c2ccccc2)C1`, the inhibition was -0.17%.

Take `O=C(Cc1ccc(Cl)cc1)NNC(=O)C1CC=CCC1C(=O)O` (stereo not drawn): the inhibition was 0.67%.

With `CCC1Oc2ccccc2N(CC(=O)Nc2ccc3c(c2)OCCO3)C1=O` (stereo not drawn), the inhibition turned out to be 1.36%.

As to `CCCN1CCN(C(=O)c2cc(COc3ccc(F)cc3F)on2)CC1`, the inhibition is -6.75%.

For `Cc1ccc(NC2CCCN(C(=O)CCN3CCCCO3)C2)cc1C` (stereo not drawn), the inhibition is 60.6%.

In the case of `Cc1cc(C)cc(OCCNC(=O)C2CCN(S(=O)(=O)c3ccccc3)CC2)c1`, the inhibition was -11.9%.

As for `Cc1cc(C(=O)Nc2nnc(C3CC3)s2)c(C)s1`, the inhibition worked out at 86.3%.

Turning to `Cc1ccc(CSc2nccc(-c3c(C)nc4ccccn34)n2)cc1`, the inhibition amounted to 37%.

In the case of `Nc1c(-c2ccccc2)cnn1-c1ccc(C(=O)O)cc1`, the inhibition is 6.3%.

Take `O=C1CS/C(=N/N=C2C3CC4CC(C3)CC2C4)N1`: the inhibition worked out at 21.1%.

With `CSc1nnc(NC(=O)c2cc(=O)c3cc(C)cc(C)c3o2)s1`, the inhibition was determined as 10.2%.

With `COc1ccccc1N1CCN(CC(=O)Nc2cc(F)ccc2C)CC1`, the inhibition was 45.1%.

`Cc1ccccc1S(=O)(=O)Cc1ccc(C(=O)NCc2cccs2)o1`: the inhibition was 2.67%.

Consider `CCCCOc1ccccc1NC(=O)c1ccco1`, for which the inhibition worked out at 29.5%.

Turning to `Cc1cccc(OCC(=O)Nc2nccs2)c1C`, the inhibition stood at 11.9%.

Take `C=CCn1c(O)c(N=Nc2ccccc2O)c2ccccc21`: the inhibition turned out to be 100%.

With `COC(=O)c1ccccc1NC(=O)N1CCN(C/C=C/c2ccccc2)CC1`, the inhibition was 8.81%.

In the case of `CCc1cccc(CC)c1NC(=O)CSc1nc2ccc(N3C(=O)C4C(C3=O)[C@H]3C=C[C@@H]4C3)cc2s1` (stereo partly drawn), the inhibition is -9.69%.

`Cc1ccc(C(=O)N2CCCC(Nc3cccc(F)c3)C2)cc1N1CCNC1=O` (stereo not drawn): the inhibition was -4.83%.

Regarding `CCN(Cc1ccncc1)C(=O)c1cc(COc2ccc(OC)cc2Cl)on1`, the inhibition came out at 16.6%.

As to `CCCNC(=O)CN(c1ccc(F)c(Cl)c1)S(C)(=O)=O`, the inhibition is -4.41%.

Regarding `CCOC(=O)C1CCN(C(=O)c2sc3nc(C)nc(N4CCC(C)CC4)c3c2C)CC1`, the inhibition is 32.5%.

Regarding `C=CCNC(=O)c1ccccc1Cl`, the inhibition came out at 1.17%.

Turning to `CC(C)(C)c1cc(Cc2ccccc2)[nH]n1`, the inhibition came to 28.4%.

For the molecule `O=C(NCCc1ccccc1C(F)(F)F)C1CCC(=O)N(C2CC2)C1` (stereo not drawn), the inhibition is -7.73%.

On to `CC(NC(=O)COC(=O)CCc1ccccc1)c1ccccc1` (stereo not drawn), for which the inhibition was determined as 1.59%.

Regarding `O=C(CSc1nnc(NC(=O)c2ccccc2F)s1)NCc1ccc(F)cc1`, the inhibition was 0.43%.

For the molecule `C=CCN(c1ccccc1)S(=O)(=O)c1cc2c(cc1C)NC(=O)CO2`, the inhibition is -4.33%.

Regarding `CCOc1ccc2nc(NC(=O)C3CCN(S(=O)(=O)c4cnc[nH]4)CC3)sc2c1`, the inhibition is -7.99%.

Take `O=C(Cn1nc(Cc2cccnc2)c2ccccc2c1=O)NCC1COc2ccccc2O1` (stereo not drawn): the inhibition is -1.52%.

With `COc1ccc(NC2CC(=O)N(C)C2=O)cc1` (stereo not drawn), the inhibition was 31%.

For the molecule `O=C(CSc1nnc(-c2cccs2)o1)Nc1cccc(S(=O)(=O)N2CCCCC2)c1`, the inhibition is 0.86%.

Regarding `Cc1cc(NS(=O)(=O)c2ccc(NC(=O)CSc3nnc(-c4ccco4)n3Cc3ccco3)cc2)nc(C)n1`, the inhibition was -2.25%.

As for `C=CCSc1nnc(-c2cc3c(-c4ccccc4)nn(C)c3s2)n1C`, the inhibition was determined as 22.7%.

`COc1ccccc1OCCNCC(O)COc1cccc2[nH]c3ccccc3c12` (stereo not drawn): the inhibition was -5.06%.

On to `Cc1ccc(C(=O)N2CCCC(CCC(=O)N3CCN(c4ccccn4)CC3)C2)cn1` (stereo not drawn), for which the inhibition was -1.02%.

In the case of `CCOC(=O)c1[nH]c(C)c(C(=O)N(CC)CC)c1C`, the inhibition was -11%.

Turning to `O=C(c1cc(COc2ccc(F)cc2F)on1)N1C[C@H]2CC[C@H]1C2`, the inhibition was -3.17%.

Regarding `Cc1cc(C)c(C)c(S(=O)(=O)N2C(=S)NC(=O)C2CC(C)C)c1C` (stereo not drawn), the inhibition is 9.18%.

As for `CCc1cc(C(=O)O)c(NC(=O)/C=C/c2ccc(OC)cc2)s1`, the inhibition was determined as 2.75%.

Consider `CCOC(=O)N1CCN(C(=O)C2CCN(c3nnc(-n4cccc4)s3)CC2)CC1`, for which the inhibition was -4.54%.

For `O=C(CCc1ccccc1)NC(=S)Nc1cccc(C(=O)O)c1`, the inhibition stood at 5.39%.

Consider `COC(CN(C(=O)CCl)C(C(=O)NC1CCCCC1)c1ccccc1C)OC` (stereo not drawn), for which the inhibition was -5.02%.

Consider `CCc1ccc2oc(-c3cc(N)cc(C)c3O)nc2c1`, for which the inhibition came out at 42.6%.

Turning to `CCOc1ccc(/C=N/n2c(COc3ccccc3)n[nH]c2=S)cc1OC`, the inhibition is 3.96%.

In the case of `Cc1cc(C)c(S(=O)(=O)Nc2ccc(O)c(Sc3ncn[nH]3)c2)cc1C`, the inhibition was -3.72%.

Consider `Cc1cc2[nH]c(=O)c(=O)[nH]c2cc1S(=O)(=O)N1CCN(c2cccc(C)c2C)CC1`, for which the inhibition was -7.28%.

`Cc1ccc(-n2nc3c(c2NC(=O)c2ccc(F)c(F)c2)CS(=O)(=O)C3)cc1`: the inhibition was -7.41%.

On to `CC(C)C(=O)Nc1nnc(SCC(=O)N2c3ccccc3CC2C)s1` (stereo not drawn), for which the inhibition is -3.03%.

As for `CCOC(=O)c1c(Nc2ccc(Cl)cc2)sc(/C=C2\C=Nc3ccccc32)c1O`, the inhibition came out at 8.38%.

For `C=CCOC(=O)C1=C(C)OC(N)=C(C#N)C1c1ccoc1` (stereo not drawn), the inhibition was 1.42%.

`Cc1cc(C)c(C)c(S(=O)(=O)N2CCN(CC(=O)Nc3sccc3C#N)CC2)c1C`: the inhibition is -0.28%.

For `S=c1[nH]cnc2scc(-c3ccc(Br)cc3)c12`, the inhibition is 42%.

With `O=C(Nc1ccnn1C1CCN(Cc2cccc(OCCO)c2)CC1)C1CC1`, the inhibition was -3.87%.

Regarding `NS(=O)(=O)c1cccc(NC(=O)CCSc2ccccc2Cl)c1`, the inhibition was -0.94%.

Turning to `COc1ccc(OCc2cc(C(=O)NCC3(C)COC3)no2)c(Cl)c1`, the inhibition is -4.38%.

On to `Cc1ccc(/C=N\NC(=O)c2csnn2)cc1`, for which the inhibition was determined as 19.4%.

For the molecule `COc1ccc(CCN2CC(C(=O)N3CCN(C(C)=O)CC3)CCC2=O)cc1` (stereo not drawn), the inhibition was 2.04%.

On to `Cc1ccc(SCCNC(=O)c2ccc(C)c([N+](=O)[O-])c2)cc1`, for which the inhibition was -0.7%.

Take `O=C(N/N=C/c1ccc(OC(=O)c2ccc3c(c2)OCO3)cc1)c1cncc(Br)c1`: the inhibition turned out to be 34.1%.

As to `C=CCCC(=O)N1CCC(Oc2cccc(C(=O)NCc3ccccn3)c2)CC1`, the inhibition turned out to be 3.45%.

`O=C(Nc1nc(-c2ccc3c(c2)OCCO3)cs1)c1ccco1`: the inhibition turned out to be 7.76%.

Turning to `COc1ccc(CN(C(=O)c2oc3ccc(F)cc3c2C)C2CCS(=O)(=O)C2)cc1` (stereo not drawn), the inhibition worked out at 15.7%.

For the molecule `COc1ccc(C)cc1NC(=O)CCCN1C(=O)C2CC=CCC2C1=O` (stereo not drawn), the inhibition was -7.12%.

Take `O=C(NC1CC2CCCC(C1)N2Cc1cccs1)N1CCOCC1` (stereo not drawn): the inhibition is -9.03%.

For the molecule `Cc1cccc(NC(=S)NC(=O)C2CC2)c1`, the inhibition was 11.1%.

Take `COc1cccc(C(C2=C(O)CC(C)(C)CC2=O)C2C(=O)CC(C)(C)CC2=O)c1` (stereo not drawn): the inhibition is 2.89%.

Consider `S=C(NN=C1C2CC3CC(C2)CC1C3)Nc1ccccc1`, for which the inhibition was -6.84%.

On to `C/C(=N\NC(=O)c1ccccc1)c1c(O)n(C2CCCCC2)c(=O)[nH]c1=O`, for which the inhibition came out at 5.01%.

`CCCNC(=O)CCc1c(C)nc2c(c(C)nn2-c2ccc(C)cc2)c1C`: the inhibition is 0.29%.

With `COc1ccc(Nc2cc3n(c(=O)n2)CCc2cc(OC)c(OC)cc2-3)c(C)c1`, the inhibition is -1.66%.

With `Cc1nnc(NC(=O)CSc2nnc(CNC(=O)c3ccccc3)o2)s1`, the inhibition was -2.63%.

On to `O=C(CSc1nnc(-c2ccco2)n1-c1ccccc1)NCC1CCCO1` (stereo not drawn), for which the inhibition was 3.15%.

Turning to `COc1ccccc1CN1C(=O)CNC1=S`, the inhibition came out at 5.34%.

Regarding `COc1ccc(C(=O)N2CCCC(Nc3ccc(F)cc3)C2)c(OC)c1` (stereo not drawn), the inhibition was -2.53%.

In the case of `CCOC(=O)c1sc2nc(-c3ccco3)c3c(c2c1N)CC(C)(C)OC3`, the inhibition was 43.2%.

`CC(CC(=O)NCc1ccco1)S(=O)(=O)c1ccc2c(c1)CCN2C(=O)C1CC1` (stereo not drawn): the inhibition is -0.39%.

With `CC(C)(C)c1ccc(C(=O)NCc2nnc(SCC(=O)NC3CCCC3)o2)cc1`, the inhibition was found to be 2.49%.

Turning to `O=C(CCCCCn1c(=S)[nH]c2ccc(N3CCOCC3)cc2c1=O)NCCc1ccccc1`, the inhibition stood at 7.67%.

Consider `CC1CCCN(S(=O)(=O)c2ccc(C(=O)Nc3nnc(C4=COCCO4)o3)cc2)C1` (stereo not drawn), for which the inhibition was found to be 66.3%.

On to `CCCCNC(=S)N/N=C/C1=CCC2CC1C2(C)C` (stereo not drawn), for which the inhibition worked out at 2.51%.

With `O=C(CN1C(=O)c2cccnc2Oc2ccc(Cl)cc21)NC1CCCC1`, the inhibition was -2.27%.

With `Cc1cc(=O)[nH]c(N/N=C/c2c(F)c(F)c(F)c(F)c2F)n1`, the inhibition came to 32.9%.

For `CCNc1nc(NCC)nc(N(C)N)n1`, the inhibition was -0.8%.

Take `CSCCC(NS(=O)(=O)c1cccs1)C(=O)NCc1ccc(C)cc1` (stereo not drawn): the inhibition was 7.49%.

As to `O=C(CSc1nnc(CNC(=O)c2ccc(F)cc2)o1)Nc1ccc2c(c1)OCCO2`, the inhibition is -4.28%.

Consider `O=C(NC(=S)Nc1cccc(Cl)c1N1CCCC1)c1ccc(-c2cccc([N+](=O)[O-])c2)o1`, for which the inhibition is 4.55%.

`CCOC(=O)C1CCN(C(=O)CN2C(=O)c3cccnc3Oc3ccc(C)cc32)CC1`: the inhibition stood at 4.09%.

In the case of `COC(=O)Cn1c(=O)c2c(nc(Br)n2CC(=O)OC)n(C)c1=O`, the inhibition was -11.7%.

Take `COCc1cc(=O)n2[nH]cc(-c3ccccc3)c2n1`: the inhibition was 29.8%.

For `COc1ccc(C2=NOC(C(=O)NCc3ccco3)C2)cc1` (stereo not drawn), the inhibition was -1.85%.

Take `CCn1c(SCC(=O)N2CCc3ccccc3C2)nc2c1c(=O)n(C)c(=O)n2C`: the inhibition was found to be 7.11%.

As for `Clc1ccccc1Nc1nc(-c2ccncc2)nc2ccccc12`, the inhibition is 67.1%.

As for `COc1ccc(C(=O)CSc2nnc(CNC(=O)c3ccccc3)o2)cc1`, the inhibition came to 7.71%.

Take `CCc1cccc(NC(=O)CN(c2ccc(OC)cc2)S(=O)(=O)c2c(C)n[nH]c2C)c1`: the inhibition was -14%.

Take `CCc1nn(C(CC)C(=O)NCCCN2CC(C)CC(C)C2)c(=O)c2cc3oc(C)cc3n12` (stereo not drawn): the inhibition was 2.56%.

On to `CCOC(=O)c1c(C)[nH]c(N=Nc2ccccc2Cl)c1C`, for which the inhibition stood at 45.4%.

Take `CC1CCCCC1NS(=O)(=O)c1ccc(S(=O)(=O)NCc2ccncc2)cc1` (stereo not drawn): the inhibition is -2.56%.

Turning to `COc1cc(NC(=O)c2ccccc2Cl)ccc1NC(=O)c1ccco1`, the inhibition is 24.5%.

Consider `COC(=O)[C@H]1Cc2c([nH]c3ccccc23)[C@H](c2ccccc2)N1`, for which the inhibition came to 30.5%.

On to `CCOc1ccc(CCNC(=O)COC(=O)c2ccc(C)c([N+](=O)[O-])c2)cc1OCC`, for which the inhibition was -2.24%.

`CC(C)N1CCC(n2nccc2NC(=O)c2ccc3c(c2)OCO3)CC1`: the inhibition was -12.2%.

Regarding `CCCC(=O)N(Cc1cc(=O)[nH]c2ccccc12)c1cccc(C)c1`, the inhibition is -2.64%.

As for `CCOc1ccccc1NC(=O)CC1NCCNC1=O` (stereo not drawn), the inhibition was -2.67%.

Turning to `Cc1c(Cl)ccc2c(C(=O)Nc3cc(C(C)(C)C)on3)cc(-c3ccccn3)nc12`, the inhibition was 8.96%.

Turning to `CCCC(NC(=O)c1ccco1)c1nc2ccccc2[nH]1` (stereo not drawn), the inhibition was found to be 7.5%.
